# Assay results as given in PubChem BioAssay AID463173 (ICCB-Longwood Screening Facility, Harvard Medical School, 2010).
# The whole screen tested about 52,000 compounds, of which about 1,700 (3.3%) were called active. Cut-off read from the data, not from the text of the source: active = survival mostly below about 52% (no sharp cut-off); inactive = mostly above about 56%. The list shows a part of the results.
# System: Wild type
# Assay: S. aureus survival, RN4220 and DeltatarO strains – OD600, teichoic acid synthesis inhibitors, primary screen (AID 463173)
# Details: S. aureus RN4220 wild type/DeltatarO growth, OD600, 18 h, stronger effect = lower value, screened at 18.75 µg/mL (by protocol)
row,SMILES,survival
1,CCc1cccc(CC)c1NC(=O)c1c(C)oc2ccc(O)c(CN3CCCC3)c12,inactive: 117%
2,NC1=NC2(CCCCC2)N(c2ccc(F)cc2)C(N)=N1,inactive: 105%
3,Cc1ccc(N2CC(NC(=O)c3cccs3)CC2=O)cc1 (centres undefined),inactive: 87%
4,CN1CCN(CCNC(=O)c2cnn(-c3ccc(F)cc3)c2C2CCN(C(=O)OC(C)(C)C)CC2)CC1,inactive: 75%
5,O=C(CCCN1C(=O)c2cccnc2Oc2ccc(Cl)cc21)NCc1ccc(F)cc1,inactive: 72%
6,COc1ccc(C2(C(=O)O)CCCC2)cc1OC,inactive: 112%
7,Cc1ccc(N2C(=O)CSC23C(=O)N(CC(=O)NCc2ccccc2)c2ccccc23)cc1 (centres undefined),inactive: 120%
8,O=C(Nc1ccccc1)Nc1nnc(SCC(=O)N2CCCCC2)s1,inactive: 131%
9,CC1=C(c2ccc(C)c(C)c2)S(=O)(=O)N(Cc2ccc(C(=O)Nc3cc(F)ccc3F)cc2)C1=O,inactive: 69%
10,CCOc1ccc(-n2cc(-c3ccccc3)c3c(NC4CCCC4)ncnc32)cc1,inactive: 126%
11,O=C(CN1C(=O)C2(SCC(=O)N2c2ccc(F)cc2)c2ccccc21)NC1CCCCC1 (centres undefined),inactive: 71%
12,Cc1cc2oc(C(=O)N(Cc3ccc(N(C)C)cc3)Cc3ccco3)c(C)c2cc1Cl,inactive: 87%
13,Cc1ccccc1Nc1nc(N)c(C(=O)c2ccccc2Cl)s1,inactive: 101%
14,CS(=O)(=O)N(CC(=O)N1CCC(C(N)=O)CC1)c1cccc(C(F)(F)F)c1,inactive: 107%
15,CCn1c(SCC(=O)N2CCc3ccccc32)nnc1C(C)C,inactive: 102%
16,CCCCc1ccc(NC(=O)CSc2nc(=O)[nH]c3c2CCCC3)cc1,inactive: 81%
17,O=C(CSc1nc2c([nH]c3ccccc32)c(=O)n1-c1ccccc1F)Nc1cccc(C(F)(F)F)c1,inactive: 71%
18,CCOc1ccc(S(=O)(=O)N2CCN(Cc3nc4ccc(C)cc4o3)CC2)cc1,inactive: 73%
19,O=C1C(=O)N(C2CCN(C(=O)c3cccc(Cl)c3)CC2)CCN1Cc1ccc(F)cc1,inactive: 77%
20,COC(=O)CCN(c1ccccc1)C(CNS(=O)(=O)c1ccccc1)c1ccccc1 (centres undefined),inactive: 114%
21,Cc1ccc(C)c(NC(=O)CSc2ccc3nc(-c4ccccc4)cn3n2)c1,inactive: 138%
22,CCOc1ccc(CCNC(=O)Cn2c(-c3cccs3)cc3ccccc32)cc1OCC,inactive: 74%
23,O=C(Nc1cccc(C(=O)OCc2cc(=O)n3nc(C4CC4)sc3n2)c1)c1cccc(Cl)c1,inactive: 59%

row,SMILES,survival
1,COc1ccc(Nc2oc(/C=C/c3ccccc3OC)nc2C#N)cc1,inactive: 86%
2,CCOc1ccc(NC(=O)c2cnc3sc(N4CCOCC4)nn3c2=O)cc1,inactive: 113%
3,COc1cccc(N2CC(NC(=O)COc3ccccc3F)CC2=O)c1 (centres undefined),inactive: 68%
4,O=C(Nc1ccccc1Br)c1cc(CN2CCCC2)on1,inactive: 69%
5,COc1cc(C(=O)NCCc2sc(-c3cccc(F)c3)nc2C)cc(OC)c1OC,inactive: 74%
6,Cc1nc2cc(-c3cccc(F)c3)nn2c(C)c1CCC(=O)NC(C)c1ccccc1 (centres undefined),inactive: 83%
7,CS(=O)(=O)N(CCc1ccccc1)CC(=O)O,inactive: 113%
8,CCc1ccc(CNC(=O)c2ccc(-c3nc(CSc4ccc(C)cc4)c(C)o3)cc2)cc1,inactive: 63%
9,O=C(CSc1oc(-c2ccc(F)cc2)nc1S(=O)(=O)c1ccccc1)NC1CCCCC1,inactive: 84%
10,CCSc1nnc(NC(=O)c2cc(=O)c3cc(C)ccc3o2)s1,inactive: 83%
11,COC(=O)c1c(NC(=O)C2c3ccccc3Oc3ccccc32)sc2c1CCC(C(C)(C)C)C2 (centres undefined),inactive: 88%
12,COc1cc2c(cc1NC(=O)c1ccccc1C)n(C)c(=O)n2C,inactive: 63%
13,COc1cccc(CNC(=O)CCn2cnc3ccccc3c2=O)c1,inactive: 73%
14,COc1cccc(-c2cc(C(=O)NCc3ccc(F)cc3)no2)c1,inactive: 71%
15,COc1ccc(-c2nnc(SCC(=O)Nc3c(C)cccc3C)nc2-c2ccc(OC)cc2)cc1,inactive: 105%
16,CC(C)CNc1ncnc2onc(-c3ccc(Cl)cc3)c12,inactive: 69%
17,CCOC(=O)c1ccc(NC(=O)c2oc3c(c2C)-c2nn(Cc4ccccc4Cl)cc2CC3)cc1,inactive: 87%
18,O=C(CCN1C(=O)c2ccccc2Sc2ncccc21)Nc1ccc(F)cc1,inactive: 88%
19,CC(CCc1ccccc1)NC(=O)Cn1ncc2c3ccccc3n(Cc3ccccc3)c2c1=O (centres undefined),inactive: 89%
20,CCCC(=O)N1c2ccccc2-c2nnc(SC)nc2OC1c1sccc1C (centres undefined),inactive: 83%
21,CN(C(=O)c1ccccc1)c1nc(-c2ccccc2)cs1,inactive: 111%
22,COc1ccc(S(=O)(=O)N2CCC(n3c(C)nc4cccnc43)CC2)cc1Cl,inactive: 131%
23,Cc1ccc(C)c(N2CCN(S(=O)(=O)c3cc(C(=O)Nc4ccccc4C(F)(F)F)ccc3F)CC2)c1,inactive: 66%

row,SMILES,survival
1,CC(Oc1ccccc1)C(=O)Nc1c(C(=O)Nc2cccc(F)c2)oc2ccccc12 (centres undefined),inactive: 57%
2,CN(C)c1ccc(CNC(=O)Cn2c(-c3cccs3)cc3cc(Cl)ccc32)cc1,inactive: 72%
3,CCc1ccc(S(=O)(=O)Nc2cc3c(cc2C)n(C)c(=O)c(=O)n3C)cc1,inactive: 57%
4,CCOC(=O)c1c(NC(=O)COc2ccc(Cl)cc2Cl)sc2c1CCCCC2,inactive: 76%
5,Nc1c(-c2nc(-c3ccccc3Cl)no2)nnn1-c1ccccc1C(F)(F)F,inactive: 110%
6,CCC(C)[C@@H](C(=O)Nc1ccc(C)cc1)N1Cc2ccccc2C1=O (some centres undefined),inactive: 67%
7,CC1=C(c2ccc(C)c(C)c2)S(=O)(=O)N=C1N1CCC(C(=O)NCc2ccc(N(C)C)cc2)CC1,inactive: 57%
8,CCN(CC)S(=O)(=O)c1ccc(NC(=O)c2c(C)oc3ncnc(N4CCCCC4)c23)cc1,inactive: 72%
9,C/C=C1\NC(=S)N(Cc2ccccc2)C1=O,inactive: 101%
10,O=c1c2oc3ccccc3c2n(Cc2ccccc2F)c(=O)n1Cc1ccc2c(c1)OCO2,inactive: 82%
11,Cc1n[nH]c(=S)n1CC(=O)n1c2c(c3ccccc31)CCCC2,inactive: 110%
12,CCOC(=O)C1CCN(S(=O)(=O)c2ccccc2)CC1,inactive: 111%
13,CCCn1c(N2CCN(C(=O)Nc3ccc(OC)cc3)CC2)nc2ccccc21,inactive: 94%
14,Cc1ccc(-c2nnc(SCC(=O)NCc3ccccc3)o2)cc1,inactive: 130%
15,O=C(NCc1ccccc1)c1ccc(CS(=O)(=O)c2c(Cl)cccc2Cl)o1,inactive: 71%
16,COc1ccc(OC)c(CCNC(=O)CCCn2c(=O)c3cccn3c3cccnc32)c1,inactive: 92%
17,CCOc1ccc(CNS(=O)(=O)c2ccc3c(c2)CC(C)N3C(C)=O)cc1OC (centres undefined),inactive: 70%
18,COc1ccc(CNC(=O)c2cnn(-c3ccccc3)c2-n2cccc2)cc1OC,inactive: 126%
19,COc1ccc(N2CCN(C(=O)CSc3nc(-c4ccccc4)no3)CC2)cc1,inactive: 89%
20,Cc1ccc(NC(=O)Cn2nc(C)c3nn(-c4ccc(Cl)cc4)c(C)c3c2=O)cc1F,inactive: 79%
21,COc1ccc(-n2nc3c(N4CCC(C(=O)NC5CCCCC5)CC4)nnc(C)c3c2C)cc1,inactive: 73%
22,COc1ccc(-c2n[nH]c3c2C(c2ccccn2)N(C)C3=O)cc1 (centres undefined),inactive: 83%
23,O=C1C2C(C(=O)N1c1ccccc1)N1CCCN1C2c1ccccc1 (centres undefined),inactive: 104%

row,SMILES,survival
1,O=C(CSc1nc(=O)[nH]c2c1CCC2)Nc1cc(C(F)(F)F)ccc1Cl,inactive: 72%
2,Cc1cccc(C(=O)Nc2ccc3nc(SCC(=O)N4CCCC4)sc3c2)c1,inactive: 69%
3,CCOC(=O)c1[nH]c(C)c(CCC(=O)N2CCN(c3cc(C)ccc3C)CC2)c1C,inactive: 124%
4,Cc1ccc2oc(=O)c3cnn(CC(=O)N4CCN(c5cccc(Cl)c5)CC4)c3c2c1,inactive: 89%
5,Cc1ccc(NC(=O)c2nc(S(=O)(=O)Cc3ccc(F)cc3)ncc2Cl)cc1C,inactive: 104%
6,CCOc1ccc(OCC)c(NC(=O)CN(C)S(=O)(=O)c2ccc3[nH]c(=O)oc3c2)c1,inactive: 87%
7,COc1cc(CNC(=O)c2ccc(NC(=O)N3CCCCc4ccccc43)cc2)cc(OC)c1OC,inactive: 71%
8,Cc1cc(C(=O)NCCc2ccc(Cl)cc2)c2c(C)nn(-c3ccccc3)c2n1,inactive: 90%
9,Cc1ccc(OCC(=O)NCC(=O)OCc2cc(=O)n3nc(CC(C)C)sc3n2)cc1,inactive: 143%
10,CCc1ccccc1NC(=O)C1CCCN(S(=O)(=O)c2ccc3[nH]c(=O)ccc3c2)C1 (centres undefined),inactive: 107%
11,O=C(c1cccs1)N1CCCc2cc(NS(=O)(=O)c3cc(F)ccc3F)ccc21,inactive: 89%
12,O=C(NCCc1ccc(Cl)cc1)c1cnc2sc(N3CCCC3)nn2c1=O,inactive: 64%
13,CC(=O)c1cccc(NC(=O)CCn2nc(C)c(S(=O)(=O)N3CCCCC3)c2C)c1,inactive: 159%
14,COc1ccc(CNC(=O)CN2C(=O)COc3ccccc32)c(OC)c1,inactive: 72%
15,Cc1ccc2nc(NC(=O)CSc3cc(C)[nH]c(=O)n3)sc2c1,inactive: 85%
16,Oc1ccccc1-c1nc2cnccn2c1Nc1ccc(Cl)cc1,active: -16%
17,O=C(N1CCC(n2cnc3cccnc32)CC1)N1c2ccccc2Sc2ccccc21,inactive: 119%
18,CC(=O)c1ccc(NC(=O)C2CCN(S(=O)(=O)c3c(C)noc3/C=C/c3ccc(C)cc3)CC2)cc1,inactive: 66%
19,CC(=O)N(C)c1nc(-c2ccccc2)cs1,inactive: 103%
20,CCOc1ccc(CNC(=O)CCCn2c(=O)c3cccn3c3cccnc32)cc1,inactive: 117%
